Among all 76,000 compounds or so, about 1,900 (2.5%) were called active. This list was built around the results that the source calls inconclusive (neither active nor inactive); the mix of calls is not that of the screen. Calls come from the whole dose curve; as a rule, active = well fitted inhibition curve with a large enough effect; inconclusive = small, poorly fitted or top-dose-only effect; inactive = flat fitted curve, though single readings scatter. Potencies beside an inconclusive call are fits to weak or partial responses and may not hold up.
Molecular target: Luciferin 4-monooxygenase (Photinus pyralis) (UniProt P08659)
Sequence of UniProt P08659 (P08659 whole entry, looked up): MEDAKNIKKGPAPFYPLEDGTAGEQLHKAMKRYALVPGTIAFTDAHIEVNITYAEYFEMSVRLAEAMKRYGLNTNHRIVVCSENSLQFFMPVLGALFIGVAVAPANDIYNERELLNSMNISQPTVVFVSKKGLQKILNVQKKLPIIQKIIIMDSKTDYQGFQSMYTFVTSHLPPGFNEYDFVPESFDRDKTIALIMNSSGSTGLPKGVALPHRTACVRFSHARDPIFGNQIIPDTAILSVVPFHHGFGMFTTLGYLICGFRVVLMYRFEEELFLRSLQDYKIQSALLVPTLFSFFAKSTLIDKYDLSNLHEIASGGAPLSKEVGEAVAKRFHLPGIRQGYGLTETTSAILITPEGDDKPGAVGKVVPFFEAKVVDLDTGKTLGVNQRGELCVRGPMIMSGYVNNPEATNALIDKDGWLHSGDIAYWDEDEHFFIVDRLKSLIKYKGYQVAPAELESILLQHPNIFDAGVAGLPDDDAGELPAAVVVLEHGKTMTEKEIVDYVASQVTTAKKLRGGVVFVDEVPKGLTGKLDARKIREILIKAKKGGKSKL
Assay: Firefly luciferase inhibition profiling of diverse chemical library using quantitative high-throughput screening; note: nearly all actives have a fitted effect of over 65% in size
Settings: purified P. pyralis luciferase, luminescence, biochemical; activity change, negative = inhibition: at 115 µM (top of the series) unless noted
Outline: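 FLuc 10nM, D-luciferin 10uM, ATP 10uM, Mg acetate 10mM, Tris acetate pH 7.5, Tween/BSA; cpd qHTS; enzyme added last; CCD luminescence.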
% is set by controls: 0 for no effect and ±100 for the full control effect; potency is the fitted concentration of half-maximal effect; tags give direction and shape of the fitted curve.

| Structure (SMILES) | Potency | activity change, negative = inhibition |
| --- | --- | --- |
| CCc1cnc(N2CCC(COc3ccc4c(cnn4CCC(=O)O)c3)CC2)nc1 | inconclusive: 100 µM [inhibitor, partial curve] | – |
| COc1cccc(Nc2cc3c(cn2)CN(Cc2cccnc2)CCN3)c1 | active: 5.01 µM | – |
| CCOc1ccc2c(n1)CCN(C(=O)c1ccc(C(C)C)cc1)C2 | active: 31.6 µM | – |
| CN(C)c1ccc(C(=O)NC[C@H]2O[C@@H](CO)[C@@H](O)[C@H]2N(C)CCc2ccccc2)cc1 | inconclusive: 79.4 µM [inhibitor, single point] | – |
| O=C(Nc1ncc(-c2cccc(F)c2)c2c1OCC2)c1ccc(F)c(Cl)c1 | – | inactive: -11.6% [at 172 µM] |
| Cc1ccc(NC(=O)N2CCCC(Cn3cnc4cccnc43)C2)c(C)c1 (centres undefined) | – | inactive: 16.1% |
| CC(C)c1cccc(NC(=O)CN2C(=O)NC(c3ccccc3Cl)C3=C2COC3=O)c1 (centres undefined) | inconclusive: 25.1 µM [inhibitor, full curve] | – |
| O=C(c1cccc2[nH]ccc12)N1CCC2(CC1)CN(c1ncccn1)CC2CO (centres undefined) | – | inactive: -11.8% |
| O=C(Nc1ccc2c(c1)OCCO2)N1CCCCCC1CN1CCOCC1 (centres undefined) | inconclusive: 44.7 µM [inhibitor, partial curve] | – |
| COCCN1CCCCCC(O)c2cc(C(=O)NCC3CC3)ccc21 (centres undefined) | inconclusive: 39.8 µM [inhibitor, partial curve] | – |
| CN1CCCN(C(=O)c2ccco2)c2ccccc21 | – | inactive: -8.22% |
| CCCC(=O)N1CCC(Oc2cnc3c(ccn3-c3cncnc3)c2)CC1 | – | inactive: -3.04% [at 172 µM] |
| CC(C)CCNC[C@H]1O[C@H](Cc2cc(-c3ccc(F)cc3)on2)CC[C@@H]1O | inconclusive: 79.4 µM [inhibitor, partial curve] | – |
| C=CCN1CC2(CCC1=O)CCN(C(=O)[C@@H](O)c1ccccc1)CC2 | – | inactive: -3.81% |
| c1ccc(-c2ccc3ncc(Nc4ccc5c(c4)OCCO5)n3n2)cc1 | inconclusive: 28.2 µM [inhibitor, full curve] | – |
| COc1ccccc1OCCNC(=O)C1CCCN(C(=O)c2ccccc2)CCC(=O)NCC1 (centres undefined) | – | inactive: -0.588% |
| Cc1cc(F)cc(CN2CCc3nc(C(=O)Nc4ccccc4)oc3CC2)c1 | active: 22.4 µM | – |
| O=C(N[C@H](C1CCNCC1)C1CC(O)C1)c1cccc(=O)[nH]1 (some centres undefined) | – | inactive: -4.62% |
| O=C(NCC1CCN(c2cc(-c3ccc(F)cc3)[nH]n2)CC1)c1c[nH]c2ccccc12 | inconclusive: 39.8 µM [inhibitor, partial curve] | – |
| c1ccc2sc(N3CCCN(Cc4cc5n(n4)CCNC5)CC3)nc2c1 | inconclusive: 79.4 µM [inhibitor, single point] | – |
| O=C(NC1CCCN(c2cc(-c3ccccc3)[nH]n2)C1)c1ccsc1 (centres undefined) | inconclusive: 39.8 µM [inhibitor, partial curve] | – |
| COCCOCc1nc(C2CCN(C(=O)NCc3ccc(OC)cc3)CC2)no1 | – | inactive: -2.59% |
| Cc1csc(NC(=O)c2nc3c(o2)CCN(Cc2c(F)cccc2F)CC3)n1 | active: 28.2 µM | – |

| Structure (SMILES) | Potency | activity change, negative = inhibition |
| --- | --- | --- |
| COc1ccc(C(=O)N2CCC3(CC2)CNC(=O)c2ccccc2O3)cc1 | – | inactive: 1.04% |
| Cc1ccc(-n2nc(C)c([C@@H]3C=C[C@@H](NCc4cccc(C#N)c4)C3)c2C)cc1Cl | inconclusive: 70.8 µM [inhibitor, full curve, poor fit] | – |
| Cc1ccc(NC(=O)N2CCc3c(C(=O)NCCc4ccccn4)cccc32)cc1 | active: 5.62 µM | – |
| O=C(Nc1ccc2c(c1)OCO2)C1CCCN(c2cnn(Cc3ccccc3)c(=O)c2)C1 (centres undefined) | inconclusive: 31.6 µM [inhibitor, partial curve] | – |
| CNC(=O)CCn1ncc2cc(OCc3ccccc3-c3ccc(F)c(Cl)c3)ccc21 | inconclusive: 44.7 µM [inhibitor, full curve, poor fit] | – |
| COc1ccc2ccc(OCc3nc(C(=O)N4CCCNC(=O)C4)co3)cc2c1 | inconclusive: 50.1 µM [inhibitor, partial curve] | – |
| O=C(c1csc2nc(-c3ccc(F)cc3)cn12)N1C[C@H]2CC[C@@H](C1)N2 | inconclusive: 79.4 µM [inhibitor, partial curve] | – |
| O=C(Nc1cnc(-c2ccccc2)nc1)C1CCCC1 | active: 1 µM | – |
| COc1cc(F)cc(-c2cccc(COc3cnc4c(ccn4CC(=O)O)c3)c2)c1 | inconclusive: 56.2 µM [inhibitor, full curve] | – |
| O=C(Nc1cccc(OC(F)(F)F)c1)c1cc(-c2ccc[nH]2)n[nH]1 | inconclusive: 25.1 µM [inhibitor, full curve] | – |
| Cc1cn2nc(C(=O)Nc3ccc4c(c3)OCO4)cc2c(N2CCCC2)n1 | inconclusive: 44.7 µM [inhibitor, partial curve] | – |
| CCNC(=O)N[C@H]1C[C@@H](Cc2cc(-c3ccccc3)on2)C1(C)C | inconclusive: 100 µM [inhibitor, partial curve] | – |
| COc1ccccc1CNC(=O)C[C@@H]1CCNC[C@@H]1Cc1cc(CSc2ccccc2)on1 | – | inactive: -0.674% |
| Cc1ccc(C2Cn3nnc(C(=O)N4CCC(C(=O)Nc5ccc(F)c(C)c5)CC4)c3CO2)cc1 (centres undefined) | inconclusive: 50.1 µM [inhibitor, partial curve] | – |
| Cc1cccc(-c2noc([C@@H]3Cc4nc[nH]c4CN3C(=O)c3ccc(F)cc3)n2)c1 | – | inactive: 3.75% [at 172 µM] |
| COc1ccc(CN[C@@H]2C=C[C@@H](c3c(C)nn(-c4ccc(OC)cc4)c3C)C2)cc1 | inconclusive: 126 µM [inhibitor, single point] | – |
| COc1cccc(-c2ccc(C(=O)N3CCC4(CCCN(C)C4=O)C3)o2)c1 (centres undefined) | inconclusive: 22.4 µM [inhibitor, partial curve, poor fit] | – |
| O=C(CCCc1ccccc1)Nc1ccnn1C1CCN(C(=O)CCn2cncn2)CC1 | inconclusive: 50.1 µM [inhibitor, partial curve] | – |
| CC(NC(=O)c1cccc2c1CCN2C(=O)Nc1ccccc1)c1cccnc1 (centres undefined) | active: 6.31 µM | – |
| CCNC(=O)N[C@@H]1C=C[C@@H](c2c(C)nn(-c3ccc(OC)cc3)c2C)C1 | inconclusive: 3.16 µM [inhibitor, full curve] | – |
| CC(C)CNC(=O)C1c2ccccc2C(=O)N(Cc2ccccc2)C12CCCC2 (centres undefined) | – | inactive: 0% |
| O=C(NCc1ccc(F)cc1F)c1noc(-c2ccc3c(c2)OCO3)n1 | inconclusive: 39.8 µM [inhibitor, partial curve] | – |
| CC(C)C[C@@H]1N[C@H](C(=O)NC2CCC2)Cc2cn(CC3CC3)c3cccc1c23 | – | inactive: -1.48% [at 172 µM] |

| Structure (SMILES) | Potency | activity change, negative = inhibition |
| --- | --- | --- |
| CC(C)c1ccc(-c2nc(-c3cccnn3)no2)c(=O)[nH]1 | inconclusive: 50.1 µM [inhibitor, partial curve] | – |
| COc1ccc(NC(=O)N2CCc3c(C(=O)NCCCN(C)C)cccc32)cc1 | active: 35.5 µM | – |
| CN(c1ccccc1)c1ccc2nnc(-c3cc(C(=O)NCCc4ccccc4)ccn3)n2n1 | – | inactive: 3.01% |
| CC(C)c1noc(CN(C)C(=O)c2cc(-c3cnn(C)c3)nc3ccccc23)n1 | inconclusive: 44.7 µM [inhibitor, partial curve] | – |
| O=C(N[C@@H]1CNC[C@H]1O)C1CCN(c2nc(-c3ccccc3)nc3c2CCC3)CC1 | – | inactive: -1.8% |
| COc1ccc(CNC(=O)Cc2c[nH]c3ncc(-c4ccccc4)cc23)cc1OC | inconclusive: 44.7 µM [inhibitor, full curve] | – |
| O=C(Nc1ccc([C@H]2OCC(=O)N(CC3CCCCC3)[C@@H]2CO)cc1)c1ccccn1 | inconclusive: 70.8 µM [inhibitor, full curve] | – |
| CCn1nccc1C(=O)N1CC(Oc2ccccc2-c2nc(CCOC)no2)C1 | – | inactive: -2.65% |
| Cc1ccc(-c2cc(N3CCCN(C(=O)c4cccs4)CC3)n[nH]2)cc1C | inconclusive: 56.2 µM [inhibitor, partial curve] | – |
| O=C(CN1C(=O)NC2(CCOCC2)C1=O)Nc1ccc2c(c1)OCCO2 | active: 44.7 µM | – |
| Cc1ccc(-c2cc(O)c3c(c2)CNCCO3)s1 | inconclusive: 50.1 µM [inhibitor, partial curve, poor fit] | – |
| Cc1cc(NC(=O)CN2C(=O)NC(c3ccccc3Cl)C3=C2COC3=O)ccc1Br (centres undefined) | inconclusive: 10 µM [inhibitor, full curve] | – |
| O=C1NC2(CCN(CC3CCCCC3)C2)OCc2ccccc21 (centres undefined) | inconclusive: 112 µM [inhibitor, partial curve, poor fit] | – |
| CCN1C(=O)CCc2cc(NC(=O)c3ccn(CC)n3)ccc21 | inconclusive: 44.7 µM [inhibitor, partial curve] | – |
| CN(C)c1cccc(C(=O)N2CCCN(c3cc(-c4ccccc4)[nH]n3)CC2)c1 | inconclusive: 50.1 µM [inhibitor, partial curve] | – |
| COc1cccc(CNC(=O)Cn2cccc2-c2nc(-c3ccc(OC)c(F)c3)no2)c1 | – | inactive: 3.77% |
| O=C(c1cc(-c2ccccc2)n[nH]1)N1CCc2c(nc(-c3ccccc3)[nH]c2=O)C1 | inconclusive: 35.5 µM [inhibitor, partial curve] | – |
| COc1ccccc1CNC(=O)C[C@@H]1[C@H](O)CCC2[C@](C)(CO)[C@H](OC(=O)NC3CCCCC3)CC[C@]21C (some centres undefined) | – | inactive: 0.223% |
| Cn1ccnc1-c1ccc(N2CCC(CO)(CCOc3ccccc3)CC2)nn1 | active: 39.8 µM | – |
| NC(Cc1ccccc1)C(=O)N1CCN(c2ccccn2)CC1 (centres undefined) | – | inactive: -4.5% |
| O=C(c1cccc2[nH]ccc12)N1CCC(Cc2nncn2Cc2ccccc2)C1 (centres undefined) | inconclusive: 50.1 µM [inhibitor, partial curve] | – |
| COc1ccc(C(=O)N2CCC3(CC2)C(OC)C(=O)N3c2cccc(F)c2)c(OC)c1 (centres undefined) | – | inactive: 4.8% |
| O=C(Nc1ccc2c(c1)OCO2)C1CCc2sc(C(=O)N3CCCC3)cc2C1 (centres undefined) | inconclusive: 44.7 µM [inhibitor, partial curve] | – |
